# Measurements reported in the supplement of paper PMC12217912.
# Some of the results follow. Sequences were assembled here from the parent chain. Values near 0.05 are background.
# B1: TEV protease; numbered along this chain (parent)
# chain: MGESLFKGPRDYNPISSSICHLTNESDGHTTSLYGIGFGPFIITNKHLFRRNNGTLVVQSLHGVFKVKDTTTLQQHLVDGRDMIIIRMPKDFPPFPQKLKFREPQREERICLVTTNFQTKSMSSMVSDTSCTFPSGDGIFWKHWIQTKDGQCGSPLVSTRDGFIVGIHSASNFTNTNNYFTSVPKNFMELLTNQEAQQWVSGWRLNADSVLWGGHKVFMVKPEEPFQPVKEATQL
# Variants of: B1
# Test: raw area under fraction-flipped curve 0-4 h after induction (AUC4h, not background-subtracted), DNA-recorder readout of cleavage of the substrate (dimensionless); higher = more cleavage of the substrate by the protease variant
# Conditions: temperature: 34 °C; time window: 0-4 h after rhamnose induction
# Procedure: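 In vivo DNA recorder in E. coli TOP10(DE3) ΔrhaA at 34 °C. Each TEVp single-site mutant (parent TEVp 0) is paired with a single-site variant of the 7-mer TEVs (canonical ENLYFQ|S). The substrate sits between flexible linkers in a Bxb1-sfGFP-TEVs-SsrA fusion, so cleavage stabilises Bxb1 and speeds flipping of a recombination array, read by NGS. The value is the raw area under the fraction-flipped curve over 0-4 h after rhamnose induction (AUC4h), with ≥20 reads per time point. It is not background-subtracted; inactive controls average about 0.047.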
# 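Note: Bxb1 expression induced with 0.2% (w/v) L-rhamnose at OD600 near 0.5, cultures sampled hourly, flipped fraction per protease–substrate barcode pair counted by paired-end Illumina sequencing.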
Variant,area with substrate ENLYAQS,area with substrate ENLYEQS,area with substrate ENLYGQS,area with substrate ENLYHQS,area with substrate ENLYKQS,area with substrate ENLYMQS,area with substrate ENLYNQS,area with substrate ENLYPQS,area with substrate ENLYYQS,area with substrate ENLYDQS,area with substrate ENLYIQS,area with substrate ENLYQQS,area with substrate ENLYTQS,area with substrate ENLYVQS,area with substrate ENLYWQS,area with substrate ENLYLQS,area with substrate ENLYSQS,area with substrate ENLYCQS,area with substrate ENLYRQS
MGESLFKGPRDYNPISSSICHLTNESDGHTTSLYGIGFGPFIITNKHLFRRNNGTLVVQSLHGVFKVKDTTTLQQHLVDGRDMIIIRMPKDFPPFPQKLKFREPQREERICLVTTNFQTKSMSSMVSDTSCTFPSGDGIFWKHWIQTKDGQCGSPLVSTRDGFIVGIHSASNFTNTNNYFTSVPRNFMELLTNQEAQQWVSGWRLNADSVLWGGHKVFMVKPEEPFQPVKEATQL [K185R],0.0858,0.0755,0.0711,0.0765,0.0572,0.0824,0.0731,0.0829,0.0639,,,,,,,,,,
MGESLFKGPRDYNPISSSICHLTNESDGHTTSLYGIGFGPFIITNKHLFRRNNGTLVVQSLHGVFKVKDTTTLQQHLVDGRDMIIIRMPKDFPPFPQKLKFREPQREERICLVTTNFQTKSMSSMVSDTSCTFPSGDGKFWKHWIQTKDGQCGSPLVSTRDGFIVGIHSASNFTNTNNYFTSVPKNFMELLTNQEAQQWVSGWRLNADSVLWGGHKVFMVKPEEPFQPVKEATQL [I139K],0.0586,0.059,,,0.0385,0.0523,0.0646,,,0.0532,0.077,0.0461,0.0837,0.118,0.0592,,,,
MGESLFKGPRDYNPISSSICHLTNESDGHTTSLYGIGFGPFIITNKHLFRRNNGTLVVQSLHGVFKVKDTTTLQQHLVDGRDMIIIRMPKDFPPFPQKLKFREPQREERICLVTTNFQTKSMSSMVSDTSCTFPSGDGIFWKHWIQTKDGQCGSPLVSTRDGFIVGIHSASNFTNTNNYFTSVPKNFMELLTNQEAQQWVSGWRLNADSVLTGGHKVFMVKPEEPFQPVKEATQL [W212T],0.0543,0.0624,,0.0612,0.0594,,0.0712,0.0679,,,0.0697,,0.0745,,0.0675,0.06,0.0709,,
MGESLFKGPRDYNPISSSICHLTNESDGHTTSAYGIGFGPFIITNKHLFRRNNGTLVVQSLHGVFKVKDTTTLQQHLVDGRDMIIIRMPKDFPPFPQKLKFREPQREERICLVTTNFQTKSMSSMVSDTSCTFPSGDGIFWKHWIQTKDGQCGSPLVSTRDGFIVGIHSASNFTNTNNYFTSVPKNFMELLTNQEAQQWVSGWRLNADSVLWGGHKVFMVKPEEPFQPVKEATQL [L33A],0.0722,0.0747,0.0478,0.0546,0.0591,,0.0539,0.0679,,,0.0629,,0.044,0.0871,0.0713,,,0.0734,0.0659
MGESLFKGPRDYNPISSSICHLTNESDGHTTSLYGIGFGPFIITNKHLFRRNNGTLVVQSLHGVFKVKDTTTLQQHLVDGRDMIIIRMPKDFPPFPQKLKFREPQREERICLVTTNFQTKSMSSMVSDTSCTFPSGDGIFWKHWIQTKDGQCGSPLVSTRDGFIVGIHSASNFTNTNNYFTSVPKNFMELLTNQEAQQWVSGWRLNADSVLWGGHKVFMKKPEEPFQPVKEATQL [V220K],0.0817,0.0695,0.053,0.063,0.0213,0.082,0.0614,0.0832,0.06,,0.126,0.0664,0.11,,0.0921,,,,0.0607
MGESLFKGPRDYNPISSSICHLTNESDGHTTSLYGIGFGPFIITNKHLFRRNNGTLVVQSLHGVFKVKDTTTLQQHLVDGRDMIIIRMPKDFPPFPQKLKFREPQREERICLVTTNFQTKSMSSMVSDTSCTFPSGDGIFWKHWIQTKDGQCGSPLVSTRDGFIVGIHSARNFTNTNNYFTSVPKNFMELLTNQEAQQWVSGWRLNADSVLWGGHKVFMVKPEEPFQPVKEATQL [S171R],0.0586,0.067,0.0718,0.0666,,0.0733,,0.063,0.0602,,0.103,,,0.104,0.0673,,,,0.0682
MGESLFKGPRDYNPISSSICHLTNESDGHTTSLYGIGFGPFIITNKHLFRRNNGTLVVQSLHGVFKVKDTTTLQQHLVDGRDMIIIRMPKDFPPFPQKLKFREPQREERICLVTTNFQTKSMSSMVSDTSCTFPSGDGIFWKHWIQTKDGQCGSPLVSTRDGFIVGIHSASNFTNTNNYFTSVPKNFMELLTNQEAQQWVSGWRLMADSVLWGGHKVFMVKPEEPFQPVKEATQL [N206M],0.0047,,,,,,,0.092,,,,0.061,0.0791,,0.0607,,,,
MGESLFKGPRDYNPISSSICHLTNESDGHTTSLYGIGFGPFIITNKHLFRRNNGTLVVQSLHGVFKVKDTTTLQQHLVDGRDMIIIRMPKDFPPFPQKLKFREPQREERICLVTTNFQTKSMSSMVSDTSCTFPSGDGIFWKHWIQTKDGQCGSPLKSTRDGFIVGIHSASNFTNTNNYFTSVPKNFMELLTNQEAQQWVSGWRLNADSVLWGGHKVFMVKPEEPFQPVKEATQL [V157K],0.0596,,0.053,0.0761,0.0276,0.067,,0.0659,,0.0032,,,,,0.0339,,0.0645,,
MGESLFKGPRDYNPISSSICHLTNESDGHTTSLYGIGFGPFIITNKHLFRRNNGTLVVQSLHGVFKVKDTTTLQQHLVDGRDMIIIRMPKDFPPFPQKLKFREPQREERICLVTTNFQTKSMSSMVSDTSCTFPSGDGIFWKHWIQTKDGQCGSPLVSTRDGFIVGIHSASNFTNTNNYFTSVPDNFMELLTNQEAQQWVSGWRLNADSVLWGGHKVFMVKPEEPFQPVKEATQL [K185D],0.0699,0.0503,0.0351,0.0654,,,0.0446,0.071,,0.0516,,,,,,,,,
MGESLFKGPRDYNPISSSICHLTNESDGHTTSLYGIGFGPFIITNKHLFRRNNGTLVVQSLHGVFKVKDTTTLQQHLVDGRDMIIIRMPKDFPPFPQKLKFREPQREERICLVTTNFQTKSMSSMVSDTSCTFPSGDGIFWKYWIQTKDGQCGSPLVSTRDGFIVGIHSASNFTNTNNYFTSVPKNFMELLTNQEAQQWVSGWRLNADSVLWGGHKVFMVKPEEPFQPVKEATQL [H143Y],0.0787,0.076,,0.053,0.0582,0.108,0.067,0.0821,0.0301,0.0674,,,,0.154,0.0865,0.0959,,0.0942,
